Screen size: about 43,000 compounds; about 200 (0.47%) were called active. Not shown: some 12% with an inconclusive outcome. Calls follow the shape of the dose curve; as a rule, active = well fitted cell-killing curve with a large enough effect; inconclusive = small, poorly fitted or top-dose-only effect, or effect the other way; inactive = flat fitted curve, though single readings scatter. The list shows a part of the results.
assay: Cell viability qHTS assay in S16 Pmp22-F2sN cells; conditions: S16 Pmp22-F2sN Schwann cells (luciferase reporters placed in the Pmp22 gene) viability, CellTiter-Glo, 24 h; series mostly up to 57.5 µM; activity change, negative = cytotoxicity: at the top concentration; also: nearly all actives have a fitted effect of over 65% in size
In short: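 S16 Schwann cells carrying the Pmp22-F2sN reporter, seeded in 1536-well format, were exposed to library compounds for 24 h at 37C. Viability was read as CellTiter-Glo luminescence after 15 min at room temperature.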
% is scaled to controls: 0 for no effect and ±100 for the full control effect; potency is read from the fitted curve at half-maximal effect.

SMILES | activity change, negative = cytotoxicity | Potency
Clc1ccccc1CNc1nc2ccccc2c2nc(-c3cccnc3)nn12 | inactive: 25.8% | 
COCCCNC(=O)c1cc(-c2cccnc2)nc2ccc(S(=O)(=O)N3CCC(C)CC3)cc12 | inactive: 4.4% | 
CN1C(=O)C2(c3ccccc31)N(c1cccc(F)c1)C(=O)CS2(=O)=O (stereo unspecified) | inactive: -0.453% | 
O=C(Cn1nnc(-c2ccc(Cl)cc2)n1)NCc1ccc(F)cc1 | inactive: 5.99% | 
COc1ccc(OC)c(CNS(=O)(=O)c2c(C(=O)N3CCCCCC3)c(C)n(C)c2C)c1 | inactive: 3.12% | 
O=S(=O)(c1ccc(Br)cc1)c1nc(-c2cccs2)oc1SCc1ccccc1F | inactive: -26.5% | 
COc1ccc(NC(=O)C2CCCN(S(=O)(=O)c3ccc4c(c3)CCCC(=O)N4)C2)c(OC)c1 (stereo unspecified) | inactive: 7.89% | 
Cc1nn(S(=O)(=O)c2ccc(F)cc2)c(C)c1S(=O)(=O)N1CCC(C)CC1 | inactive: 9.6% | 
COc1cccc2cc(C(=O)NCCc3c(C)[nH]c4ccc(Br)cc34)c(=O)oc12 | inactive: -0.442% | 
Cc1ccc(-n2ncc(C(=O)Nc3ccc4c(c3)OCO4)c2C2CCN(C(=O)OC(C)(C)C)CC2)cc1 | inactive: -13% | 
Cc1ccnc(NS(=O)(=O)c2cc(-c3cc(C)no3)ccc2C)c1 | inactive: -0.897% | 
CCc1ccc(N(CC)C(=O)Cn2c(=O)oc3ccccc32)cc1 | inactive: 3.57% | 
CC(C)(C)NC(=O)c1cnn2c(C(F)F)cc(-c3ccccc3)nc12 | inactive: 6.05% | 
Cc1ccc(CCNC(=O)C2CCN(c3nnc(-n4cccc4CNc4ccc(C)cc4)s3)CC2)cc1 | inactive: -11.9% | 
CCN(C(=O)Cn1c(=O)oc2cc(Cl)ccc21)c1cccc(C(F)(F)F)c1 | inactive: 0.403% | 
COc1ccc(/C=C/C(=O)Nc2nc3n(n2)C(c2ccccc2)C=C(c2ccccc2)N3)cc1 (stereo unspecified) | inactive: 0.574% | 
Cc1ccc(-c2cnc(NCc3ccc(C(F)(F)F)cc3)n2C)cc1 | inactive: 6.55% | 
CCOC(=O)c1cc2c(=O)n3ccccc3nc2n(CC(C)C)c1=NC(=O)c1cc2ccccc2o1 | inactive: -2.94% | 
Cc1ccc(S(=O)(=O)c2cn(Cc3ccc(F)cc3)c3cc(F)c(F)cc3c2=O)cc1 | inactive: 4.1% | 
CCOCCn1ccc2c(OCC(=O)Nc3ccc(OC(F)(F)F)cc3)cccc2c1=O | inactive: -3.76% | 
O=C(CN1C(=O)CC(c2ccccc2)Sc2ccccc21)Nc1cccc(Cl)c1 (stereo unspecified) | inactive: 22.7% | 

SMILES | activity change, negative = cytotoxicity | Potency
CC(=O)c1cccc(NC(=O)CCS(=O)(=O)c2ccc(Br)s2)c1 | inactive: -2.77% | 
Cc1ccc(Cl)cc1Nc1sc(C(=O)c2ccccc2)c(N)c1S(=O)(=O)c1ccccc1 | inactive: -0.338% | 
Cc1ccc(Nc2cc(C(=O)NC3CCCC3)c3ccccc3n2)c(C)c1 | inactive: 21.3% | 
COc1ccc(NC(=O)CSC2=Nc3ccccc3C3=NC(Cc4ccccc4)C(=O)N23)cc1Cl (stereo unspecified) | inactive: -24.3% | 
CN(Cc1ccccc1)C(=O)Cn1ncc2c3ccccc3n(Cc3cccc(Cl)c3)c2c1=O | inactive: 3.59% | 
COc1cc(CCC(=O)NCc2ccc3c(c2)CCN3C(=O)c2cccc(C)c2)cc(OC)c1OC | inactive: 0.0243% | 
CCc1cnc2c(c1SCC(=O)NCc1ccccc1)c(=O)n(C)c(=O)n2C | inactive: 8.49% | 
Cc1cc(C)c2oc(-c3cccc(NC(=O)c4cc5ccccc5o4)c3)nc2c1 | inactive: -2.39% | 
Cc1ccc2c(CC(=O)Nc3c(C(=O)Nc4cccc(Cl)c4)oc4ccccc34)coc2c1C | inactive: 0.2% | 
COc1ccc2cc(CNc3ccccc3)c(=O)n(CC(=O)Nc3ccc(C)cc3C)c2c1 | inactive: -11.3% | 
Cc1ccc(NC(=O)Cn2c(=O)c(C(F)(F)F)nc3ccccc32)c(C)c1 | inactive: 26.7% | 
CCCCN(CC)CCNC(=O)Cn1c(=O)c2cccn2c2cccnc21 | inactive: -3.08% | 
COc1ccc(C(CC(=O)Nc2ccc(OC)c(OC)c2)N2Cc3ccccc3C2=O)cc1 (stereo unspecified) | inactive: 8.38% | 
COc1ccc(OC)c(CCNC(=O)c2ccc3[nH]c(C)c(C)c3c2)c1 | inactive: -10.6% | 
COCCn1c(C)cc(O)c(C(c2ccccc2OC)N2CCCCC2)c1=O (stereo unspecified) | inactive: -0.819% | 
Cc1ccc(C)c(N2CCN(C(=O)c3cccn3-c3nnc(N4CCCCC4)s3)CC2)c1 | inactive: -3.39% | 
COc1cccc(CNC(=O)c2cc3c(=O)n(C)c4ccccc4c3n2C)c1 | inactive: 13.8% | 
CCN1CCN(CCCNC(=O)c2cc3c(s2)-c2c(C)cccc2OC3)CC1 |  | active: 25.1 µM
O=S(=O)(c1ccc(-c2cc(C(F)(F)F)on2)s1)N1CCN(c2cccc(Cl)c2)CC1 | inactive: 6.31% | 
CCc1nc2ccc(C(=O)NCCc3ccc(OC)c(OC)c3)cc2nc1CC | inactive: -4.07% | 
CCOc1ccccc1CNC(=O)c1[nH]c2ccccc2c1Sc1ccccc1 | inactive: 1.47% | 

SMILES | activity change, negative = cytotoxicity | Potency
CCn1ccc2cc(S(=O)(=O)N3CCC(C(=O)NCCOC)CC3)ccc21 | inactive: -1.73% | 
Cc1nn2c(C(F)(F)F)cc(-c3ccc(OC(C)C)cc3)nc2c1C#N | inactive: 2.25% | 
Cc1ccccc1Nc1ncnc2c1c(-c1ccccc1)cn2-c1ccc(F)cc1 | inactive: 11.5% | 
O=C(CCc1nc2cccnc2n1Cc1ccccc1)NCc1cccc(Cl)c1 | inactive: -3.18% | 
OCc1cnc(SCc2cccc(F)c2)n1Cc1ccc(F)cc1 | inactive: -16.1% | 
Cc1c(C(=O)N2CCCC2)oc2c1-c1nn(CC(=O)NCc3cccc(F)c3)cc1CC2 | inactive: -1.42% | 
CN1c2ccc(Cl)cc2-c2nc(SCC(=O)Nc3cc(F)ccc3F)ncc2S1(=O)=O | inactive: -19.4% | 
COC(=O)NNC(=O)C1CCC(C)CC1 (stereo unspecified) | inactive: -1.86% | 
Cc1cccc(N2C(=O)CS(=O)(=O)C23C(=O)N(C)c2ccccc23)c1 (stereo unspecified) | inactive: -2.27% | 
Cc1ncc(COC(=O)C(C)C)c2cc(C(=O)Nc3ccccc3C(F)(F)F)c(=O)oc12 | inactive: -0.254% | 
CCCCn1c(CNC(=O)C23CC4CC(CC(C4)C2)C3)nnc1SCC(=O)Nc1ccccc1 | inactive: -5.92% | 
O=C(O)Cn1nc(N2CCN(c3ccc(F)cc3)CC2)ccc1=O | inactive: 7.7% | 
COC(=O)c1ccccc1NC(=O)c1ccc2c(c1)CCN2S(=O)(=O)c1ccc(C)cc1 | inactive: 7.7% | 
O=c1cc(-c2ccccc2)n2c(SCc3ccc([N+](=O)[O-])cc3)nnc2[nH]1 | inactive: 10.9% | 
CC1=C(C(N)=O)C(c2cccc(F)c2)n2nc(SCc3ccccc3)nc2N1 (stereo unspecified) | inactive: 2.32% | 
CCCCc1ccc(C(=O)Nc2ccc3nc(N(CC)CC)cc(C)c3c2)cc1 | inactive: 15.9% | 
COc1ccc2cc(CNc3ccc(C)cc3)c(=O)n(CC(=O)Nc3ccc(OC)c(Cl)c3)c2c1 | inactive: 18.1% | 
O=C(CCCn1c(=O)c2sccc2n(Cc2ccc(F)cc2Cl)c1=O)NCc1ccc2c(c1)OCO2 | inactive: 1.44% | 
COc1cc(OC)c(NC(=O)C2=C(C)C(=O)OC23CCCCC3)cc1Cl | inactive: -6.19% | 

From PubChem BioAssay AID1508642 (National Center for Advancing Translational Sciences (NCATS), 2021)
